Whole data set: some 33,000 sequences, median “E-score (-0.5 to 0.5)” near -0.013, cut for the highest 2% near 0.3. Some of the results follow.
Each sequence was assayed against T1, Msn1 (UniProt P22148) (assay: PBM E-score (8-mer binding enrichment) (E-score (-0.5 to 0.5)); higher = stronger / more preferred TF binding; most listed sequences are background and not binding sites). Details: protein concentration: 200 nM; construct: GST-full length.
T1 sequence: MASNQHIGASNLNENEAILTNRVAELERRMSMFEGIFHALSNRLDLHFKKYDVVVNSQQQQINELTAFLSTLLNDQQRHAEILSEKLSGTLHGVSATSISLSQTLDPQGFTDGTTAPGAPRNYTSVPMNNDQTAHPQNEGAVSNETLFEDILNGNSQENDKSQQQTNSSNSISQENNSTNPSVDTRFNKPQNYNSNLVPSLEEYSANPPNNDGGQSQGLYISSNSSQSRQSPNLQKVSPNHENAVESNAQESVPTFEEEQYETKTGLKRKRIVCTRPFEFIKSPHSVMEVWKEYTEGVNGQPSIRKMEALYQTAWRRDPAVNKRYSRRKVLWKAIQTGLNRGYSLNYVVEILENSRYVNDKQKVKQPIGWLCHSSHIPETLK
Outline: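 E-scores (a modified Wilcoxon-Mann-Whitney statistic) were assigned by the Universal PBM Analysis Suite to every ungapped eight-base word pooled with its reverse complement. The input came from universal all-10-mer Agilent arrays made double-stranded by primer extension and probed with GST-tagged yeast transcription factors at about 100-200 nM. Fluorescent anti-GST detected bound protein, and masliner normalised the scans.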

| Sequence | PBM E-score |
| --- | --- |
| CAGGGTAC | -0.178 |
| CAGCCGGC | -0.223 |
| AACCCGAT | 0.194 |
| GCGCGCGC | 0.333 |
| GGCCCTAC | -0.163 |
| GACCCCTC | -0.296 |
| GACCACAC | -0.0566 |
| CCTGAAAG | 0.118 |
| GATTGGTA | 0.069 |
| AGGCAACG | -0.279 |
| CCTTCTCA | -0.277 |
| CTTTGTGA | 0.126 |
| ACCCGGCC | -0.236 |
| AAAGAGTA | -0.0873 |
| AGCTTTGA | -0.0239 |
| CGGAAGTC | 0.152 |
| TCGACGCA | 0.15 |
| CTGTCATC | 0.0737 |
| CATTAAGC | 0.0171 |
| AAACTCCG | 0.162 |
| GTATATAC | 0.145 |
| ACCTTTAA | -0.0272 |

| Sequence | PBM E-score |
| --- | --- |
| AAATGAGG | -0.0423 |
| GCCTCGCC | -0.267 |
| ATGTCGAC | 0.257 |
| CTCGTCCA | 0.121 |
| AAGATCGA | 0.0843 |
| GTCATGAA | 0.102 |
| AATGTGAT | 0.0196 |
| AGGCTACT | -0.159 |
| ACGGTCGC | -0.079 |
| AGCGCACC | -0.0345 |
| GTCGACCA | -0.0635 |
| GATTCACC | -0.145 |
| AGGGTGTA | -0.0323 |
| CTGGCCCC | -0.324 |
| CTACTGGC | -0.231 |
| GGTCCACA | -0.0821 |
| AACACTCG | 0.0592 |
| CTCTGAGC | -0.303 |
| AAAGGACC | -0.105 |
| ATGACCAA | 0.0865 |
| CTCCAGCA | -0.129 |
| AATAGCGC | -0.0337 |

| Sequence | PBM E-score |
| --- | --- |
| GGATAGCC | -0.189 |
| GCCCCTAC | -0.317 |
| AGTTAAAA | 0.126 |
| ACAAGGTA | -0.00849 |
| CCGAACAC | 0.105 |
| TCGTAAGA | 0.115 |
| GTGTAACA | 0.0781 |
| ATTGCTAC | -0.0935 |
| AAGAGAAT | 0.164 |
| AAGTGTTC | 0.0151 |
| CGGGAACC | -0.157 |
| AAGTATGA | 0.0528 |
| GTAGTCAA | -0.00544 |
| CATATCAC | 0.066 |
| ATTGTAGC | -0.0506 |
| ATCTATCC | -0.0249 |
| AGGTATCA | -0.119 |
| CCTAGTTA | 0.0465 |
| CATCGTAG | -0.172 |
| CCCACTCA | -0.238 |
| GGCCATAC | 0.133 |
| ACGAGTCC | 0.104 |

| Sequence | PBM E-score |
| --- | --- |
| GGACCAAA | 0.0741 |
| ACGCTTAC | -0.137 |
| AGGAACAA | 0.0848 |
| ACTAAGAA | 0.102 |
| TATGAGGA | -0.0153 |
| AGTTCGGC | 0.0736 |
| TACATTGA | 0.105 |
| ACGTTACG | 0.0842 |
| TATCCCAA | 0.159 |
| ACGACACG | 0.206 |
| AGACTTAG | -0.112 |
| GTAACCCA | 0.0982 |
| GTCACCAC | 0.127 |
| ACCAACGA | 0.0241 |
| CAAGGTCC | -0.105 |
| AGCTTTCG | -0.0984 |
| GCACAAGA | -0.0415 |
| TCCCGAGA | 0.0235 |
| CAAGCCTA | -0.0333 |
| CTTTGGAC | 0.262 |
